B1: Example 9: Fc-apelin fusion SEQ ID NO: 116; Fc C-terminal Lys replaced with Ala, linker GGGGSGGGGSGGGGS, polypeptide QRPRLC*HKGPMC*F (protein)
chain: METDTLLLWVLLLWVPGSTG[skipping human IgG1 Fc with changes]AGGGGSGGGGSGGGGSQRPRLCHKGPMCF
modifications: disulfide cyclisation
B2: Example 11: Fc-apelin fusion SEQ ID NO: 118; linker GS, polypeptide QRPRLC*HKGPMC*F (protein)
chain: METDTLLLWVLLLWVPGSTG[skipping human IgG1 Fc with changes]GSQRPRLCHKGPMCF
modifications: disulfide cyclisation
B3: Example 12: Fc-apelin fusion SEQ ID NO: 119; linker GG, polypeptide QRPRLC*HKGPMC*F (protein)
chain: METDTLLLWVLLLWVPGSTG[skipping human IgG1 Fc with changes]GGQRPRLCHKGPMCF
modifications: disulfide cyclisation
B4: Example 13: Fc-apelin fusion SEQ ID NO: 120; linker GGGGS, polypeptide QRPRLC*HKGPMC*F (protein)
chain: METDTLLLWVLLLWVPGSTG[skipping human IgG1 Fc with changes]GGGGSQRPRLCHKGPMCF
modifications: disulfide cyclisation
B5: Example 15: Fc-apelin fusion SEQ ID NO: 122; Fc C-terminal Lys replaced with Ala, linker GGGGS GGGGS GGGGS, polypeptide QRPRLC*HKGPMC* (protein)
chain: METDTLLLWVLLLWVPGSTG[skipping human IgG1 Fc with changes]AGGGGSGGGGSGGGGSQRPRLCHKGPMC
modifications: disulfide cyclisation
B6: Example 17: Fc-apelin fusion SEQ ID NO: 124; linker GS, polypeptide QRPRLC*HKGPMC* (protein)
chain: METDTLLLWVLLLWVPGSTG[skipping human IgG1 Fc with changes]GSQRPRLCHKGPMC
modifications: disulfide cyclisation
B7: Example 18: Fc-apelin fusion SEQ ID NO: 125; linker GG, polypeptide QRPRLC*HKGPMC* (protein)
chain: METDTLLLWVLLLWVPGSTG[skipping human IgG1 Fc with changes]GGQRPRLCHKGPMC
modifications: disulfide cyclisation
B8: Example 6: Fc-Apelin fusion SEQ ID NO: 100; linker GGGGSGGGGS, polypeptide QRPRLC*HKGPMC*F (protein)
chain: METDTLLLWVLLLWVPGSTG[skipping human IgG1 Fc with changes]GGGGSGGGGSQRPRLCHKGPMCF
modifications: disulfide cyclisation
B9: Example 19: Fc-apelin fusion SEQ ID NO: 126; linker GGGGS, polypeptide QRPRLC*HKGPMC* (protein)
chain: METDTLLLWVLLLWVPGSTG[skipping human IgG1 Fc with changes]GGGGSQRPRLCHKGPMC
modifications: disulfide cyclisation

Experiment: Surrogate activity-based plasma stability assay
Conditions: Table 2

Molecule | Surrogate activity-based Plasma stability t½ [min]
B1 | >1000
B2 | >1000
B3 | >1000
B4 | >1000
B5 | >1000
B6 | >1000
B7 | >1000

Experiment: not given
Conditions: not given

Molecule | Surrogate activity-based Plasma stability t½ [min]
B8 | >1000
B9 | >1000
